From PubChem BioAssay AID1508623 (National Center for Advancing Translational Sciences (NCATS), 2021)
About 450 (0.94%) of roughly 48,000 compounds were called active. Inconclusive results (about 19%) are left out. The call rests on the fitted dose curve; in most records, active means well fitted inhibition curve with a large enough effect; inconclusive means small, poorly fitted or top-dose-only effect; inactive means no such curve, though single readings can be large or run the other way. Some of the results follow.

Experiment: Primary qHTS for Identification of Small Molecule Inhibitors of Huntingtin Promoter Activity; further: nearly all actives have a fitted effect of over 50% in size
Conditions: HEK293 HTT promoter firefly luciferase reporter (activity 0% = vehicle and -100% = no light), 24 h; series mostly up to 57.5 µM; activity change, negative = inhibition: at the top concentration
In short: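 Firefly luciferase readout (Dual-Glo, 10 min RT) after 24 h, 37 °C compound exposure (final up to 57.5 uM) of HEK293 reporter cells cultured 24 h beforehand; PTC124 at 50 uM final as control inhibitor; activity scaled vehicle 0%, zero RLU -100%.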
Potency means the concentration at half of the fitted maximal effect.

**Q.** Which “activity change, negative = inhibition” value does the source give for `COc1cccc(C(=O)NCC(c2ccc3c(c2)OCO3)N2CCOCC2)c1` (configuration not stated) here?
**A.** inactive: -4.54%

**Q.** With `O=C(NCc1ccccc1)C(=O)NCC(c1cccs1)S(=O)(=O)c1ccccc1` (configuration not stated) as the compound, how does the “activity change, negative = inhibition” value read?
**A.** inactive: -39.1%

**Q.** With `CC1(C)CC(=O)c2cc(C(=O)Nc3ccccc3Cl)c(=O)n(-c3ccc(Cl)cc3)c2C1` as the compound, how does the “activity change, negative = inhibition” value read?
**A.** inactive: -21.9%

**Q.** With `COc1ccc2cc3cc(C(=O)NCc4ccccc4OC)oc3nc2c1` as the compound, how does the “activity change, negative = inhibition” value read?
**A.** inactive: -11.6%

**Q.** For `Cc1cccc(NC(=O)CSc2nc(-c3ccco3)cc(C(F)(F)F)n2)c1C`, which “activity change, negative = inhibition” value is on record?
**A.** inactive: -13.4%

**Q.** With `Cc1ccc(N(Cc2cccs2)C(=O)c2ccccc2Cl)cc1` as the compound, how does the “activity change, negative = inhibition” value read?
**A.** inactive: -29%

**Q.** Which “activity change, negative = inhibition” value does the source give for `O=C(c1ccccc1Cl)N1CCCCC1CCN1CCCCC1` (configuration not stated) here?
**A.** inactive: -9.79%

**Q.** With `O=C(Nc1nnc2n1CCS2)c1ccc(F)cc1F` as the compound, how does the “activity change, negative = inhibition” value read?
**A.** inactive: 52.5%

**Q.** Which activity change, negative = inhibition does the source give for `COc1ccc(NC(=O)C(C)N(c2ccccc2)S(C)(=O)=O)cc1` (configuration not stated) here?
**A.** inactive: 3.57% [at 11.5 µM]

**Q.** For `COc1ccc(C)cc1NC(=O)Cn1c(=O)n(Cc2nc(C)no2)c(=O)c2ccccc21`, which “activity change, negative = inhibition” value is on record?
**A.** inactive: -0.649%

**Q.** Which “activity change, negative = inhibition” value does the source give for `CCOc1ccccc1NC(=O)C(CC)Sc1nc2ccncc2[nH]1` (configuration not stated) here?
**A.** inactive: -27.8%

**Q.** Which “activity change, negative = inhibition” value does the source give for `COc1ccc(NCc2cc3cc4c(cc3n(CC(=O)Nc3cc(C)ccc3C)c2=O)OCCO4)cc1` here?
**A.** inactive: -6.09%

**Q.** With `Cc1nn2c(=O)cc(COC(=O)c3ccccc3NC(=O)C(C)Oc3ccccc3)nc2s1` (configuration not stated) as the compound, how does the “activity change, negative = inhibition” value read?
**A.** inactive: -16.7%

**Q.** For `Cc1ccc(-n2c(=O)c3ccc(C(=O)NCc4ccco4)cc3n(Cc3ccccc3C#N)c2=O)cc1`, which “activity change, negative = inhibition” value is on record?
**A.** inactive: -1.12%

**Q.** For `Cn1c(=O)c2cc(C(=O)NCCCN3CCN(c4ccccc4F)CC3)sc2c2ccccc21`, which “activity change, negative = inhibition” value is on record?
**A.** inactive: -4.58%

**Q.** With `COc1ccc(NC(=O)c2ccc3c(c2)sc2nc(-c4ccc(OC)cc4)cn23)cc1` as the compound, how does the “activity change, negative = inhibition” value read?
**A.** inactive: 6.99%

**Q.** With `Cc1ccc(NC(=O)Cn2c(=O)n(Cc3ccco3)c(=O)c3ccccc32)c(C)c1` as the compound, how does the “activity change, negative = inhibition” value read?
**A.** inactive: -7.86%

**Q.** For `CCN(CC)c1cc2c(cc1F)c(=O)c(S(=O)(=O)c1cccc(C)c1)cn2C`, which “activity change, negative = inhibition” value is on record?
**A.** inactive: -15.9%

**Q.** With `Cc1ccc(-c2cn(-c3cccc(Cl)c3)c(S(=O)(=O)CC(=O)Nc3ccccc3F)n2)cc1` as the compound, how does the “activity change, negative = inhibition” value read?
**A.** inactive: 38.4%

**Q.** Which “activity change, negative = inhibition” value does the source give for `CCOc1ccc(C2CC(=O)N(c3cccc(F)c3)C3=C2C(=O)OC3)cc1` (configuration not stated) here?
**A.** inactive: 20.5%

**Q.** For `Cc1ccc(-n2nc3c(=O)n(CCCC(=O)NCCc4ccccc4Cl)nc(C)c3c2C)cc1`, which “activity change, negative = inhibition” value is on record?
**A.** inactive: -16.3%

**Q.** For `NC(=O)c1ccccc1NC(=O)C1CCCN(c2ncnc3onc(-c4ccc(F)cc4)c23)C1` (configuration not stated), which “activity change, negative = inhibition” value is on record?
**A.** inactive: -8.36%

**Q.** Which “activity change, negative = inhibition” value does the source give for `Cc1ccc(NC(=O)CN2C(=O)CCc3cc(S(=O)(=O)N4CCOCC4)ccc32)cc1N(C)C` here?
**A.** inactive: -20.2%

**Q.** With `O=C(NC1CCCC1)c1ccc2c(c1)N(Cc1ccc(C(F)(F)F)cc1)C(=O)c1ccccc1S2` as the compound, how does the “activity change, negative = inhibition” value read?
**A.** inactive: -10%

**Q.** With `Cc1ccccc1Cn1c(=O)n(Cc2ccc3c(c2)OCO3)c(=O)c2oc3ccccc3c21` as the compound, how does the “activity change, negative = inhibition” value read?
**A.** inactive: -5.38%

**Q.** Which “activity change, negative = inhibition” value does the source give for `COCCCNS(=O)(=O)c1cc(-c2onc(C)c2C)ccc1OC` here?
**A.** inactive: 5.5%

**Q.** With `COc1ccc(N2CCN(C(=O)CSc3n[nH]c(-c4ccccc4)n3)CC2)cc1` as the compound, how does the “activity change, negative = inhibition” value read?
**A.** inactive: -12%

**Q.** Which “activity change, negative = inhibition” value does the source give for `CN(C)C(=O)c1ccc(NC(=O)Cn2nnnc2-c2ccccc2F)cc1` here?
**A.** inactive: -11.5%

**Q.** Which “activity change, negative = inhibition” value does the source give for `COc1ccccc1CNC(=O)Cc1c(C)c2c(cc(C)c3c(C)coc32)oc1=O` here?
**A.** inactive: -4.04%

**Q.** Which “activity change, negative = inhibition” value does the source give for `COc1ccc(N(CC(=O)NCc2ccc(F)cc2)S(=O)(=O)c2c(C)noc2C)cc1` here?
**A.** inactive: -16.4%

**Q.** With `Cc1ccccc1C(=O)N(Cc1ccc(N(C)C)cc1)Cc1ccco1` as the compound, how does the “activity change, negative = inhibition” value read?
**A.** inactive: -22.2%

**Q.** For `COc1ccc(OC)c(-c2nc3c(C#N)c[nH]n3c2NC2CCCCC2)c1`, which “activity change, negative = inhibition” value is on record?
**A.** inactive: -16.2%

**Q.** With `CCCN(c1ccc(C(C)C)cc1)S(=O)(=O)c1ccc2c(c1)CCN2C(=O)CC` as the compound, how does the “activity change, negative = inhibition” value read?
**A.** inactive: -32.2%

**Q.** With `CCc1nonc1NC(=O)c1oc2ccc(F)cc2c1C` as the compound, how does the “activity change, negative = inhibition” value read?
**A.** inactive: 36.7%

**Q.** For `Cc1cccc(OCC(=O)NC(Cc2c[nH]c3ccccc23)C(=O)O)c1C` (configuration not stated), which “activity change, negative = inhibition” value is on record?
**A.** inactive: -4.79%

**Q.** Which “activity change, negative = inhibition” value does the source give for `COc1ccc(CCNC(=O)C(=O)NCC(c2ccc3c(c2)OCO3)N2CCOCC2)cc1` (configuration not stated) here?
**A.** inactive: -18%

**Q.** For `O=C(Nc1cc(F)ccc1F)N1CCC(CN2CCOCC2)CC1`, which “activity change, negative = inhibition” value is on record?
**A.** inactive: -10.8%

**Q.** With `Cc1ccc2c(CC(=O)Nc3cccc(Cl)c3C)coc2c1` as the compound, how does the “activity change, negative = inhibition” value read?
**A.** inactive: -4.77%

**Q.** For `Cn1c(=O)n(C/C=C/c2ccccc2)c(=O)c2c1nc1n2CCN1c1ccc(F)cc1`, which “activity change, negative = inhibition” value is on record?
**A.** inactive: -5.14%

**Q.** Which “activity change, negative = inhibition” value does the source give for `CCOC(=O)C1=C(C)NC(C)=C(C(=O)OCC)C1c1ccccc1/C=C/C(=O)OC(C)(C)C` here?
**A.** inactive: -23.9%

**Q.** With `Cc1ccc(-c2nc3cc(NC(=O)c4cc5ccccc5o4)ccc3o2)cc1` as the compound, how does the “activity change, negative = inhibition” value read?
**A.** inactive: 24.7%

**Q.** Which “activity change, negative = inhibition” value does the source give for `COc1ccc(C(=O)CC2(O)C(=O)Nc3c(C)cccc32)c(OC)c1OC` (configuration not stated) here?
**A.** inactive: -2.14%

**Q.** With `CCOc1ccc(-n2c(SCC(=O)Nc3cccc(Cl)c3)nc3c(oc4ccccc43)c2=O)cc1` as the compound, how does the “activity change, negative = inhibition” value read?
**A.** inactive: -11.9%

**Q.** Which “activity change, negative = inhibition” value does the source give for `CCOc1ccc(-c2cnc(NCc3ccc(C(F)(F)F)cc3)n2C)cc1` here?
**A.** inactive: -23.6%

**Q.** Which “activity change, negative = inhibition” value does the source give for `CN1CCN(c2ncc3c(n2)CCN(Cc2cc(Br)cs2)C3)CC1` here?
**A.** inactive: -19.3%

**Q.** With `O=C(OCC#CCSc1nnc(-c2cccc3ccccc23)o1)c1cc2ccccc2s1` as the compound, how does the “activity change, negative = inhibition” value read?
**A.** inactive: 23.6%

**Q.** With `Cc1cccc(N2CCN(C(=O)c3cc4c(=O)oc5ccccc5c4s3)CC2C)c1` (configuration not stated) as the compound, how does the “activity change, negative = inhibition” value read?
**A.** inactive: -14.2%

**Q.** For `COc1ccc(CNS(=O)(=O)c2cc3c(cc2C)n(C)c(=O)c(=O)n3C)cc1`, which “activity change, negative = inhibition” value is on record?
**A.** inactive: -2.92%

**Q.** With `CC(C)CN(CC(C)C)C(=O)C1CCCN(S(=O)(=O)c2ccc3c(c2)oc(=O)n3C)C1` (configuration not stated) as the compound, how does the “activity change, negative = inhibition” value read?
**A.** inactive: -7.96%

**Q.** For `COc1cccc(NC(=O)c2nn(-c3ccc(C)cc3)c(=O)n(C)c2=O)c1`, which “activity change, negative = inhibition” value is on record?
**A.** inactive: 5.12%

**Q.** For `Cc1cc(C)c2nc(N3CCCC(C(=O)NCc4cccc(Cl)c4)C3)sc2c1` (configuration not stated), which “activity change, negative = inhibition” value is on record?
**A.** inactive: -0.294%

**Q.** Which “activity change, negative = inhibition” value does the source give for `COc1ccc(CCC(C)=O)cc1` here?
**A.** inactive: -1.97%

**Q.** For `Cc1ccc(NS(=O)(=O)c2ccc3c(c2)NC(=O)C(C)C(=O)N3)cc1F` (configuration not stated), which “activity change, negative = inhibition” value is on record?
**A.** inactive: -28.6%

**Q.** For `Cc1ccc(NC(=O)CSc2cc(=O)n(C)c3ccc(Cl)cc23)c(Br)c1`, which “activity change, negative = inhibition” value is on record?
**A.** inactive: -11.1%

**Q.** With `CC(NC(=O)c1ccc2c(c1)N(Cc1cccc(F)c1)C(=O)c1ccccc1S2)c1ccccc1` (configuration not stated) as the compound, how does the “activity change, negative = inhibition” value read?
**A.** inactive: 0%

**Q.** For `CCCCN(C)CCNC(=O)c1c(C)oc2ncnc(N3CCOCC3)c12`, which “activity change, negative = inhibition” value is on record?
**A.** inactive: 2.63%

**Q.** With `Cc1cccc(NC(=O)Cn2c(=O)n(CCC(C)C)c(=O)c3cccnc32)c1` as the compound, how does the “activity change, negative = inhibition” value read?
**A.** inactive: -6.17%

**Q.** Which Potency does the source give for `Cc1ccc(-n2nc(C(=O)N3CCN(c4cccc(C(F)(F)F)c4)CC3)c(=O)n(C)c2=O)cc1` here?
**A.** active: 31.6 µM

**Q.** Which “activity change, negative = inhibition” value does the source give for `Cc1ccc(CNc2ccc(-c3nc(C(C)C)no3)cc2[N+](=O)[O-])cc1` here?
**A.** inactive: -10.4%

**Q.** With `Cc1ccc(-n2c(=O)c3c(c4cc(C)ccc4n3C)n(CC(=O)Nc3c(C)cccc3C)c2=O)cc1` as the compound, how does the “activity change, negative = inhibition” value read?
**A.** inactive: -18%

**Q.** For `O=C(CCSCCc1ccccn1)Nc1cc(F)ccc1F`, which “activity change, negative = inhibition” value is on record?
**A.** inactive: -14.5%

**Q.** With `CC1=C(C(=O)Nc2ccccc2)C(c2cccnc2)n2nc(SCc3ccccc3F)nc2N1` (configuration not stated) as the compound, how does the “activity change, negative = inhibition” value read?
**A.** inactive: 4.34%
